In PubChem BioAssay AID686978 (National Center for Advancing Translational Sciences (NCATS), 2013):
Out of some 420,000 compounds screened, about 64,000 (15%) were called active. The shares of active, inactive and inconclusive entries below differ from those in the screen. Calls follow the shape of the dose curve; as a rule, active = well fitted inhibition curve with a large enough effect; inconclusive = small, poorly fitted or top-dose-only effect; inactive = flat fitted curve, though single readings scatter. Potencies of inconclusive entries are left out as doubtful fits.

Assay: qHTS for Inhibitors of human tyrosyl-DNA phosphodiesterase 1 (TDP1): qHTS in cells in absence of CPT; also: nearly all actives have a fitted effect of over 55% in size
Settings: DT40 Tdp1-/- hTDP1 cells, no CPT, ATP luminescence, 48 h; series mostly up to 46.2 µM
Summary of the method: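 A cellular qHTS used chicken DT40 cells lacking endogenous Tdp1 but carrying stably transfected human TDP1. Compounds were applied without camptothecin, and cell growth kinetics were judged by ATP-dependent luminescence after ≥48 hr.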
Potency is read from the fitted curve at half-maximal effect; tags tell the direction and shape of the fitted curve.

SMILES	Potency
CC(C)c1ccc(NC(=O)CSc2nc3ccccc3nc2N2CCCC2)cc1	active: 13 µM
CC1CC(C)CN(C(=O)c2ccc(N3CC4CC(C3)c3cccc(=O)n3C4)c([N+](=O)[O-])c2)C1 (stereo not given)	inconclusive [inhibitor, single point]
Cc1nccn1CCN(C)Cc1cn(Cc2ccccc2)nc1-c1ccc2c(c1)OCO2	inconclusive [inhibitor, single point]
COc1ccc2nc(SCC(=O)Nc3ccc(S(=O)(=O)N4CCCC4)cc3)c(C#N)cc2c1	inconclusive [inhibitor, single point]
CCOC(=O)C1=C(CN2CCCCCC2)NC(=O)NC1c1ccc2c(c1)OCO2 (stereo not given)	inconclusive [inhibitor, single point]
COC(=O)c1csc(C2OC(CO)C(O)C2O)n1 (stereo not given)	inactive
CCCCCCCCCCC(C)(C)C(=O)Nc1c(OC)cc(OC)cc1OC	active: 10 µM
CCC1CCC2(CC1)NNC(=S)NN2	active: 18.4 µM
Cc1ccc(S(=O)(=O)N2CCN(C(=O)COC(=O)/C=C/c3ccc(C(F)(F)F)cc3)CC2)c(C)c1	inconclusive [inhibitor, partial curve, poor fit]
Cc1ccc(NC(=O)C(C)N2C(=O)C3CC=C(Cl)CC3C2=O)cc1 (stereo not given)	inactive
CCOc1ccc(S(=O)(=O)NCCC(=O)NCC2COc3ccccc3O2)cc1 (stereo not given)	inactive
C/C=C/C(=O)Nc1ccc(N2CCN(c3ccc(C(F)(F)F)cn3)CC2)nc1	inconclusive [inhibitor, single point]
COc1ccc2[nH]c3c(c2c1)CCN1C(=O)N([C@@H](C)C(=O)NC2CCCC2)C(=O)[C@]31C	inconclusive [inhibitor, single point]
COCCNC(=O)c1cc(Sc2ccc(F)cc2F)nc2ccccc12	inactive
CC(=O)c1cccc(NC(=O)c2ccc3c(c2)C(=O)N(Cc2cccnc2)C3=O)c1	inactive
CCCNc1c(NS(=O)(=O)c2c(F)c(F)c(F)c(F)c2F)c(=O)oc2ccccc12	inactive
COC(=O)c1c(NC(=O)CN2CCN(S(=O)(=O)c3ccccc3[N+](=O)[O-])CC2)sc2c1CCC(C)C2 (stereo not given)	inconclusive [inhibitor, single point]
Cc1ccc(CS(=O)Cc2ccc(C(=O)NCc3cccs3)o2)cc1 (stereo not given)	inactive
COc1cc(OC)c(NC(=O)Nc2ccccc2OCc2cc(=O)n3cc(C)ccc3n2)cc1Cl	active: 9.2 µM
Cc1cccc(C)c1NC(=O)C1(C)CCC(=O)N1CCc1c[nH]c2ccccc12 (stereo not given)	inactive
